Source: patent US20100260668A1 (published 2010)

T1: VEGF (UniProt P15692-4 27-191)
T1 construct: Bought reagent; also called vascular endothelial growth factor
T1 sequence (looked up): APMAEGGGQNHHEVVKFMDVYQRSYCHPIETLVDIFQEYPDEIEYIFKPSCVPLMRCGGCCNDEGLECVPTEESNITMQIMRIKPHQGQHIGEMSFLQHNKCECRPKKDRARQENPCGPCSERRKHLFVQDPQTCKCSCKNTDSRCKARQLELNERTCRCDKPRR


How the values were obtained:
[1] = target: T2, DLL4 (DLL ECD His tag, R&D 1506-D4-050) (UniProt Q9NR61 in part); assay: BIACORE (SPR), DVD-Ig against DLL4
T2 construct: extracellular domain; bought

VEGF = target: T1, VEGF; assay: BIACORE SPR

| Binder | Kd [1] [pM] | koff [1] [s⁻¹] | kon [1] [M⁻¹ s⁻¹] | Kd (VEGF) [pM] | koff (VEGF) [s⁻¹] | kon (VEGF) [M⁻¹ s⁻¹] |
| --- | --- | --- | --- | --- | --- | --- |
| DVD493 (bispecific antibody, human IgG1, kappa, DVD-Ig; N-term; VD DLL4 (AB072), C-term; VD VEGF (AB014); HC linker long, LC linker long; also called DVD-Ig DVD493; DVD493H) heavy: EVQLQQSGPELVKPGASVKMSCKASGYTFTSYVINWVKQKPGQGLEWIGLINPYNDGTKYNEKFKVKATLTSDKSSSTAYMELSSLTSEDSAVYYCASYYYGSRYYFDYWGQGTTLTVSSASTKGPSVFPLAPEVQLVESGGGLVQPGGSLRLSCAASGYTFTNYGMNWVRQAPGKGLEWVGWINTYTGEPTYAADFKRRFTFSLDTSKSTAYLQMNSLRAEDTAVYYCAKYPHYYGSSHWYFDVWGQGTLVTVSS[omitted - human IgG1 constant region] light: DIQMTQSSSYLSVSLGGRVTITCKASDHINNWLAWYQQKPGNAPRLLISGATSLETGVPSRFSGSGSGKDYTLSITSLQTEDVATYYCQQYWSIPLTFGAGTKLELKRTVAAPSVFIFPPDIQMTQSPSSLSASVGDRVTITCSASQDISNYLNWYQQKPGKAPKVLIYFTSSLHSGVPSRFSGSGSGTDFTLTISSLQPEDFATYYCQQYSTVPWTFGQGTKVEIKRTVAAPSVFIFPPSDEQLKSGTASVVCLLNNFYPREAKVQWKVDNALQSGNSQESVTEQDSKDSTYSLSSTLTLSKADYEKHKVYACEVTHQGLSSPVTKSFNRGEC | 137 | 4e-05 | 292000 | – | – | – |
| DVD499 (bispecific antibody, human IgG1, kappa, DVD-Ig; N-term; VD DLL4 (AB072), C-term; VD VEGF (AB014); HC linker long, LC linker short; also called DVD-Ig DVD499; DVD499H) heavy: EVQLQQSGPELVKPGASVKMSCKASGYTFTSYVINWVKQKPGQGLEWIGLINPYNDGTKYNEKFKVKATLTSDKSSSTAYMELSSLTSEDSAVYYCASYYYGSRYYFDYWGQGTTLTVSSASTKGPSVFPLAPEVQLVESGGGLVQPGGSLRLSCAASGYTFTNYGMNWVRQAPGKGLEWVGWINTYTGEPTYAADFKRRFTFSLDTSKSTAYLQMNSLRAEDTAVYYCAKYPHYYGSSHWYFDVWGQGTLVTVSS[omitted - human IgG1 constant region] light: DIQMTQSSSYLSVSLGGRVTITCKASDHINNWLAWYQQKPGNAPRLLISGATSLETGVPSRFSGSGSGKDYTLSITSLQTEDVATYYCQQYWSIPLTFGAGTKLELKRTVAAPDIQMTQSPSSLSASVGDRVTITCSASQDISNYLNWYQQKPGKAPKVLIYFTSSLHSGVPSRFSGSGSGTDFTLTISSLQPEDFATYYCQQYSTVPWTFGQGTKVEIKRTVAAPSVFIFPPSDEQLKSGTASVVCLLNNFYPREAKVQWKVDNALQSGNSQESVTEQDSKDSTYSLSSTLTLSKADYEKHKVYACEVTHQGLSSPVTKSFNRGEC | 295 | 8.01e-05 | 271000 | – | – | – |
| DVD505 (bispecific antibody, human IgG1, kappa, DVD-Ig; N-term; VD DLL4 (AB072), C-term; VD VEGF (AB014); HC linker short, LC linker long; also called DVD-Ig DVD505; DVD505H) heavy: EVQLQQSGPELVKPGASVKMSCKASGYTFTSYVINWVKQKPGQGLEWIGLINPYNDGTKYNEKFKVKATLTSDKSSSTAYMELSSLTSEDSAVYYCASYYYGSRYYFDYWGQGTTLTVSSASTKGPEVQLVESGGGLVQPGGSLRLSCAASGYTFTNYGMNWVRQAPGKGLEWVGWINTYTGEPTYAADFKRRFTFSLDTSKSTAYLQMNSLRAEDTAVYYCAKYPHYYGSSHWYFDVWGQGTLVTVSS[omitted - human IgG1 constant region] light: DIQMTQSSSYLSVSLGGRVTITCKASDHINNWLAWYQQKPGNAPRLLISGATSLETGVPSRFSGSGSGKDYTLSITSLQTEDVATYYCQQYWSIPLTFGAGTKLELKRTVAAPSVFIFPPDIQMTQSPSSLSASVGDRVTITCSASQDISNYLNWYQQKPGKAPKVLIYFTSSLHSGVPSRFSGSGSGTDFTLTISSLQPEDFATYYCQQYSTVPWTFGQGTKVEIKRTVAAPSVFIFPPSDEQLKSGTASVVCLLNNFYPREAKVQWKVDNALQSGNSQESVTEQDSKDSTYSLSSTLTLSKADYEKHKVYACEVTHQGLSSPVTKSFNRGEC | 153 | 4.02e-05 | 262000 | – | – | – |
| DVD469 (bispecific antibody, human IgG1, kappa, DVD-Ig; N-term; AB015 (DLL4), C-term; AB014 (VEGF); HC linker long, LC linker long; also called DVD469H; DVD469L) heavy: EVQLVESGGGLVQPGGSLRLSCAASGFTFTDNWISWVRQAPGKGLEWVGYISPNSGFTYYADSVKGRFTISADTSKNTAYLQMNSLRAEDTAVYYCARDNFGGYFDYWGQGTLVTVSSASTKGPSVFPLAPEVQLVESGGGLVQPGGSLRLSCAASGYTFTNYGMNWVRQAPGKGLEWVGWINTYTGEPTYAADFKRRFTFSLDTSKSTAYLQMNSLRAEDTAVYYCAKYPHYYGSSHWYFDVWGQGTLVTVSS[omitted - human IgG1 constant region] light: DIQMTQSPSSLSASVGDRVTITCRASQDVSTAVAWYQQKPGKAPKLLIYSASFLYSGVPSRFSGSGSGTDFTLTISSLQPEDFATTYYCQQSYTGTVTFGQGTKVEIKRTVAAPSVFIFPPDIQMTQSPSSLSASVGDRVTITCSASQDISNYLNWYQQKPGKAPKVLIYFTSSLHSGVPSRFSGSGSGTDFTLTISSLQPEDFATYYCQQYSTVPWTFGQGTKVEIKRTVAAPSVFIFPPSDEQLKSGTASVVCLLNNFYPREAKVQWKVDNALQSGNSQESVTEQDSKDSTYSLSSTLTLSKADYEKHKVYACEVTHQGLSSPVTKSFNRGEC | – | – | – | 455 | 0.0151 | 3.31e+07 |
| DVD475 (bispecific antibody, human IgG1, kappa, DVD-Ig; N-term; AB015 (DLL4), C-term; AB014 (VEGF); HC linker long, LC linker short; also called DVD475H; DVD475L) heavy: EVQLVESGGGLVQPGGSLRLSCAASGFTFTDNWISWVRQAPGKGLEWVGYISPNSGFTYYADSVKGRFTISADTSKNTAYLQMNSLRAEDTAVYYCARDNFGGYFDYWGQGTLVTVSSASTKGPSVFPLAPEVQLVESGGGLVQPGGSLRLSCAASGYTFTNYGMNWVRQAPGKGLEWVGWINTYTGEPTYAADFKRRFTFSLDTSKSTAYLQMNSLRAEDTAVYYCAKYPHYYGSSHWYFDVWGQGTLVTVSS[omitted - human IgG1 constant region] light: DIQMTQSPSSLSASVGDRVTITCRASQDVSTAVAWYQQKPGKAPKLLIYSASFLYSGVPSRFSGSGSGTDFTLTISSLQPEDFATTYYCQQSYTGTVTFGQGTKVEIKRTVAAPDIQMTQSPSSLSASVGDRVTITCSASQDISNYLNWYQQKPGKAPKVLIYFTSSLHSGVPSRFSGSGSGTDFTLTISSLQPEDFATYYCQQYSTVPWTFGQGTKVEIKRTVAAPSVFIFPPSDEQLKSGTASVVCLLNNFYPREAKVQWKVDNALQSGNSQESVTEQDSKDSTYSLSSTLTLSKADYEKHKVYACEVTHQGLSSPVTKSFNRGEC | – | – | – | 838 | 0.00024 | 286000 |
| DVD481 (bispecific antibody, human IgG1, kappa, DVD-Ig; N-term; AB015 (DLL4), C-term; AB014 (VEGF); HC linker short, LC linker long; also called DVD481H; DVD481L) heavy: EVQLVESGGGLVQPGGSLRLSCAASGFTFTDNWISWVRQAPGKGLEWVGYISPNSGFTYYADSVKGRFTISADTSKNTAYLQMNSLRAEDTAVYYCARDNFGGYFDYWGQGTLVTVSSASTKGPEVQLVESGGGLVQPGGSLRLSCAASGYTFTNYGMNWVRQAPGKGLEWVGWINTYTGEPTYAADFKRRFTFSLDTSKSTAYLQMNSLRAEDTAVYYCAKYPHYYGSSHWYFDVWGQGTLVTVSS[omitted - human IgG1 constant region] light: DIQMTQSPSSLSASVGDRVTITCRASQDVSTAVAWYQQKPGKAPKLLIYSASFLYSGVPSRFSGSGSGTDFTLTISSLQPEDFATTYYCQQSYTGTVTFGQGTKVEIKRTVAAPSVFIFPPDIQMTQSPSSLSASVGDRVTITCSASQDISNYLNWYQQKPGKAPKVLIYFTSSLHSGVPSRFSGSGSGTDFTLTISSLQPEDFATYYCQQYSTVPWTFGQGTKVEIKRTVAAPSVFIFPPSDEQLKSGTASVVCLLNNFYPREAKVQWKVDNALQSGNSQESVTEQDSKDSTYSLSSTLTLSKADYEKHKVYACEVTHQGLSSPVTKSFNRGEC | – | – | – | 1200 | 0.000573 | 476000 |
| DVD441 (bispecific antibody, human IgG1, kappa, DVD-Ig; N-term; AB069 (DLL4), C-term; AB014 (VEGF); HC linker short, LC linker short; also called DVD441H; DVD441L) heavy: QVQLVQSGAEVKKPGASVKISCKASGYSFTAYYIHWVKQAPGQGLEWIGYISSYNGATNYNQKFKGRVTFTTDTSTSTAYMELRSLRSDDTAVYYCARDYDYDVGMDYWGQGTLVTVSSASTKGPEVQLVESGGGLVQPGGSLRLSCAASGYTFTNYGMNWVRQAPGKGLEWVGWINTYTGEPTYAADFKRRFTFSLDTSKSTAYLQMNSLRAEDTAVYYCAKYPHYYGSSHWYFDVWGQGTLVTVSS[omitted - human IgG1 constant region] light: DIVMTQSPDSLAVSLGERATISCRASESVDNYGISFMKWFQQKPGQPPKLLIYAASNQGSGVPDRFSGSGSGTDFTLTISSLQAEDVAVYYCQQSKEVPWTFGGGTKVEIKRTVAAPDIQMTQSPSSLSASVGDRVTITCSASQDISNYLNWYQQKPGKAPKVLIYFTSSLHSGVPSRFSGSGSGTDFTLTISSLQPEDFATYYCQQYSTVPWTFGQGTKVEIKRTVAAPSVFIFPPSDEQLKSGTASVVCLLNNFYPREAKVQWKVDNALQSGNSQESVTEQDSKDSTYSLSSTLTLSKADYEKHKVYACEVTHQGLSSPVTKSFNRGEC | – | – | – | 558 | 7.43e-05 | 133000 |
| DVD447 (bispecific antibody, human IgG1, kappa, DVD-Ig; N-term; AB069 (DLL4), C-term; AB014 (VEGF); HC linker long, LC linker long; also called DVD447H; DVD447L) heavy: QVQLVQSGAEVKKPGASVKISCKASGYSFTAYYIHWVKQAPGQGLEWIGYISSYNGATNYNQKFKGRVTFTTDTSTSTAYMELRSLRSDDTAVYYCARDYDYDVGMDYWGQGTLVTVSSASTKGPSVFPLAPEVQLVESGGGLVQPGGSLRLSCAASGYTFTNYGMNWVRQAPGKGLEWVGWINTYTGEPTYAADFKRRFTFSLDTSKSTAYLQMNSLRAEDTAVYYCAKYPHYYGSSHWYFDVWGQGTLVTVSS[omitted - human IgG1 constant region] light: DIVMTQSPDSLAVSLGERATISCRASESVDNYGISFMKWFQQKPGQPPKLLIYAASNQGSGVPDRFSGSGSGTDFTLTISSLQAEDVAVYYCQQSKEVPWTFGGGTKVEIKRTVAAPSVFIFPPDIQMTQSPSSLSASVGDRVTITCSASQDISNYLNWYQQKPGKAPKVLIYFTSSLHSGVPSRFSGSGSGTDFTLTISSLQPEDFATYYCQQYSTVPWTFGQGTKVEIKRTVAAPSVFIFPPSDEQLKSGTASVVCLLNNFYPREAKVQWKVDNALQSGNSQESVTEQDSKDSTYSLSSTLTLSKADYEKHKVYACEVTHQGLSSPVTKSFNRGEC | – | – | – | 159 | 4.76e-05 | 299000 |
